Measurements reported in the supplement of paper PMC8728848.
Some of the results follow.

Assays:
Experiment in all cases: glycan array binding signal (z-score within array); higher = stronger binding
Details in all cases: glycan notation: IUPAC condensed, linker removed
[1] = target: Fuc(a1-2)Gal(b1-4)GlcNAc(b1-3)Gal(b1-4)GlcNAc(b1-3)Gal(b1-4)GlcNAc
In short: (§1)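 Glycan array binding is given as a within-array Z-score, which can be read as non-binding when negative. The arrays, 3228 of them, came from the Consortium for Functional Glycomics database and were retained only where the protein sequence was available. Z-scores were averaged across arrays of the same protein sequence at different concentrations or buffers and across linkers.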

[2] = target: Fuc(a1-2)Gal(b1-4)GlcNAc(b1-3)GalNAc
In short: as §1

[3] = target: Fuc(a1-2)Gal(b1-4)GlcNAc(b1-3)[Fuc(a1-2)Gal(b1-4)GlcNAc(b1-6)]GalNAc
In short: as §1

[4] = target: Fuc(a1-2)Gal(b1-4)GlcNAc(b1-3)[Fuc(a1-3)[Gal(b1-4)]GlcNAc(b1-6)]Gal(b1-4)Glc
In short: as §1

[5] = target: Fuc(a1-2)Gal(b1-4)GlcNAc(b1-6)GalNAc
In short: as §1

[6] = target: Fuc(a1-2)Gal(b1-4)GlcNAc6S
In short: as §1

[7] = target: Fuc(a1-2)Gal(b1-4)[Fuc(a1-3)]GlcNAc
In short: as §1

[8] = target: Fuc(a1-2)Gal(b1-4)[Fuc(a1-3)]GlcNAc(b1-2)Man(a1-3)[Fuc(a1-2)Gal(b1-4)[Fuc(a1-3)]GlcNAc(b1-2)Man(a1-6)]Man(b1-4)GlcNAc(b1-4)[Fuc(a1-6)]GlcNAc
In short: as §1

[9] = target: Fuc(a1-2)Gal(b1-4)[Fuc(a1-3)]GlcNAc(b1-2)[Fuc(a1-2)Gal(b1-4)[Fuc(a1-3)]GlcNAc(b1-4)]Man(a1-3)[Fuc(a1-2)Gal(b1-4)[Fuc(a1-3)]GlcNAc(b1-2)Man(a1-6)]Man(b1-4)GlcNAc(b1-4)GlcNAc
In short: as §1

[10] = target: Fuc(a1-2)Gal(b1-4)[Fuc(a1-3)]GlcNAc(b1-3)Gal(b1-4)[Fuc(a1-3)]GlcNAc
In short: as §1

[11] = target: Fuc(a1-2)Gal(b1-4)[Fuc(a1-3)]GlcNAc(b1-3)Gal(b1-4)[Fuc(a1-3)]GlcNAc(b1-3)Gal(b1-4)[Fuc(a1-3)]GlcNAc
In short: as §1

[12] = target: Fuc(a1-2)Gal(b1-4)[Fuc(a1-3)]GlcNAc(b1-3)GalNAc
In short: as §1

[13] = target: Fuc(a1-2)Gal(b1-4)[Fuc(a1-3)]GlcNAc(b1-3)[Neu5Ac(a2-6)Gal(b1-4)GlcNAc(b1-6)]Gal(b1-4)Glc
In short: as §1

[14] = target: Fuc(a1-2)Gal3S(b1-4)GlcNAc
In short: as §1

[15] = target: Fuc(a1-2)Gal6S(b1-3)GlcNAc
In short: as §1

[16] = target: Fuc(a1-2)Gal6S(b1-3)GlcNAc6S
In short: as §1

Fuc(a1-2)Gal6S(b1-4)Glc = target: Fuc(a1-2)Gal6S(b1-4)Glc
In short: as §1

[17] = target: Fuc(a1-2)Gal6S(b1-4)Glc6S
In short: as §1

Fuc(a1-2)[Gal(a1-3)]Gal = target: Fuc(a1-2)[Gal(a1-3)]Gal
In short: as §1

[18] = target: Fuc(a1-2)[Gal(a1-3)]Gal(b1-3)GalNAc
In short: as §1

[19] = target: Fuc(a1-2)[Gal(a1-3)]Gal(b1-3)GalNAc(b1-3)Gal(a1-4)Gal(b1-4)Glc
In short: as §1

[20] = target: Fuc(a1-2)[Gal(a1-3)]Gal(b1-3)GlcNAc
In short: as §1

[21] = target: Fuc(a1-2)[Gal(a1-3)]Gal(b1-3)GlcNAc(b1-2)Man(a1-3)[Fuc(a1-2)[Gal(a1-3)]Gal(b1-3)GlcNAc(b1-2)Man(a1-6)]Man(b1-4)GlcNAc(b1-4)GlcNAc
In short: as §1

[22] = target: Fuc(a1-2)[Gal(a1-3)]Gal(b1-3)GlcNAc(b1-2)Man(a1-3)[Fuc(a1-2)[Gal(a1-3)]Gal(b1-3)GlcNAc(b1-2)Man(a1-6)]Man(b1-4)GlcNAc(b1-4)[Fuc(a1-6)]GlcNAc
In short: as §1

[23] = target: Fuc(a1-2)[Gal(a1-3)]Gal(b1-3)GlcNAc(b1-3)GalNAc
In short: as §1

[24] = target: Fuc(a1-2)[Gal(a1-3)]Gal(b1-3)GlcNAc(b1-6)GalNAc
In short: as §1

[25] = target: Fuc(a1-2)[Gal(a1-3)]Gal(b1-4)Glc
In short: as §1

[26] = target: Fuc(a1-2)[Gal(a1-3)]Gal(b1-4)GlcNAc
In short: as §1

[27] = target: Fuc(a1-2)[Gal(a1-3)]Gal(b1-4)GlcNAc(b1-2)Man
In short: as §1

[28] = target: Fuc(a1-2)[Gal(a1-3)]Gal(b1-4)GlcNAc(b1-2)Man(a1-3)[Fuc(a1-2)[Gal(a1-3)]Gal(b1-4)GlcNAc(b1-2)Man(a1-6)]Man(b1-4)GlcNAc(b1-4)GlcNAc
In short: as §1

B1: Epa3to1 (Candida glabrata) (protein)
chain: MGSSHHHHHHSSGLVPRGSHMKRELSSQNPFGYPIGCSPQDVAIIPGLTMELYSYPIVSGTPPNCYDASYVDPEYPRTGYLKRKMVGKSTGVTGNLNYKYSVEKACMVKYGNLPAGYNYNEPLTVSNFTMILYGYFKAQTTGLHTFFVNADDLLYINFGAGNAFDCCKREDSKTKLGEYVAYDIWHVDSSKNKVSLFLEKDLYYPIRMFFNNREYDSSLDLSFSVNGATDQISDFSGYLYSVPDQPDTCPAHIGYDTTCR
[1]
  glycan array binding signal (z-score): -0.479
[2]
  glycan array binding signal (z-score): -0.272
[3]
  glycan array binding signal (z-score): 0.273
[4]
  glycan array binding signal (z-score): 0.165
[5]
  glycan array binding signal (z-score): 0.045
[6]
  glycan array binding signal (z-score): -0.404
[7]
  glycan array binding signal (z-score): -0.287
[8]
  glycan array binding signal (z-score): -0.215
[9]
  glycan array binding signal (z-score): -0.249
[10]
  glycan array binding signal (z-score): -0.316
[11]
  glycan array binding signal (z-score): -0.831
[12]
  glycan array binding signal (z-score): -0.026
[13]
  glycan array binding signal (z-score): -0.117
[14]
  glycan array binding signal (z-score): 0.738
[15]
  glycan array binding signal (z-score): -0.442
[16]
  glycan array binding signal (z-score): 2.17
Fuc(a1-2)Gal6S(b1-4)Glc
  glycan array binding signal (z-score): 0.072
[17]
  glycan array binding signal (z-score): -0.264
Fuc(a1-2)[Gal(a1-3)]Gal
  glycan array binding signal (z-score): -0.348
[18]
  glycan array binding signal (z-score): -0.029
[19]
  glycan array binding signal (z-score): 1.05
[20]
  glycan array binding signal (z-score): 0.21
[21]
  glycan array binding signal (z-score): -0.309
[22]
  glycan array binding signal (z-score): 0.896
[23]
  glycan array binding signal (z-score): -0.274
[24]
  glycan array binding signal (z-score): -0.375
[25]
  glycan array binding signal (z-score): -0.166
[26]
  glycan array binding signal (z-score): 0.041
[27]
  glycan array binding signal (z-score): -0.369
[28]
  glycan array binding signal (z-score): 0.414
